In all, about 33,000 sequences were measured (“E-score (-0.5 to 0.5)”: median about -0.054, highest 2% from about 0.35 on). The list shows a part of the results.
target: T1, Stb5 (UniProt P38699); experiment: PBM E-score (8-mer binding enrichment) (E-score (-0.5 to 0.5)); higher = stronger / more preferred TF binding; most listed sequences are background and not binding sites; details: protein concentration: 200 nM; construct: GST-full length
T1 sequence: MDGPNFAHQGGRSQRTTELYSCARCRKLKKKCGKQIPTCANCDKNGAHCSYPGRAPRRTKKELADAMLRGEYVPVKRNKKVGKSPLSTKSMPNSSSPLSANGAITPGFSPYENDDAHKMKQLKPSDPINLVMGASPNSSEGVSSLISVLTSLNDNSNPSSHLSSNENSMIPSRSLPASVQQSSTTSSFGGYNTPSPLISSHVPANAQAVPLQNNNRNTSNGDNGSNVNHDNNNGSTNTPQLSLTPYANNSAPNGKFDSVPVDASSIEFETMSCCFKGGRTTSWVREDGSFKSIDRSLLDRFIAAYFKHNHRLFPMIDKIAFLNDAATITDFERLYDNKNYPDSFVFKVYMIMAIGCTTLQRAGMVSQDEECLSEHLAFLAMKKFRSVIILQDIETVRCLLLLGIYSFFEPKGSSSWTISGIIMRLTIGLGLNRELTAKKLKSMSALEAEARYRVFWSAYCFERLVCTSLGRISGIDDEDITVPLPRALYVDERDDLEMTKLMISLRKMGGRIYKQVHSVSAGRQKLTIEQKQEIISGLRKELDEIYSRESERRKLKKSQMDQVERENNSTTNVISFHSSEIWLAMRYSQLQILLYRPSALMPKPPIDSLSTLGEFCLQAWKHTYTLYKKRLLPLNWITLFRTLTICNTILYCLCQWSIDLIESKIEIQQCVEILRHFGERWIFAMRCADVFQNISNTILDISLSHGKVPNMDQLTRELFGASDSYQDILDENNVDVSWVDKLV
Procedure, shortened: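 Masliner-normalised scans of fluorescent anti-GST signal were the basis for scoring. That signal came from GST-tagged yeast transcription factors applied at about 100-200 nM to double-stranded universal all-10-mer Agilent arrays on fresh or once-stripped slides. Each ungapped eight-base word, pooled with its reverse complement, received an E-score from the Universal PBM Analysis Suite.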

Sequence	PBM E-score
ATGCGAGG	-0.0963
ATGCGATA	0.093
GCGGTTTA	0.139
AAAACCCC	0.355
TCTACACA	-0.196
AAGTTCCA	-0.172
ATAGTTTG	-0.137
CAAGGGCC	0.0868
AGCCACGC	-0.239
CCGAGTCA	-0.103
TACCCGGA	0.21
GATAAAAC	0.261
CCAATGGC	-0.0094
AGTCAGCC	-0.115
CACTAGGC	0.0595
AGGAGTGG	-0.259
CACCAAAA	0.0886
TAAGGGCA	-0.156
CAATCATA	-0.0755
ATCGGTAG	0.237
ACCAGGGC	-0.196
ATTCAAGC	-0.0725
ACTACGGA	0.0755
AACACTGC	-0.157
TCTGGTCA	-0.187

Sequence	PBM E-score
ATAAAGAA	-0.0875
ACTCCGAA	0.328
AAAAGGTA	-0.0845
ACTATTAG	-0.0833
CATGTAAA	-0.0828
TAGTCATA	-0.0911
GGAAGACA	-0.0137
AATACCAT	-0.0252
CTACCCCA	-0.181
AGCAGCGG	0.328
ACCGCTCT	0.226
CTGATCTA	-0.0871
GTGCTGTA	0.0244
GAGACCGC	0.311
CGCTTGTC	0.0372
CATGAATC	-0.0557
CCAGCATC	-0.129
AATCGTAA	-0.0854
CAGCTTAA	-0.169
GAACCTGA	-0.126
ACACGACT	-0.213
GGACAACA	0.0282
ACCTTCGA	-0.146
CATCGCAA	-0.228
AGATACAT	-0.2

Sequence	PBM E-score
TCACGGGA	0.177
TGCGCCCA	0.0103
TGACAAAA	-0.159
ACCCCTCA	-0.0127
CCCGTCAG	0.201
AACTGTGA	-0.19
GGAAAGTA	0.00459
GGACACCC	-0.0607
AAATGAGT	0.0915
ACGAAAGT	-0.225
GCAAGCGC	0.0311
AACCAATC	-0.105
AAGCGAGC	0.0454
TGGACCCA	-0.218
ATACATAG	-0.0217
CATGACAG	-0.16
ATAAAACC	0.263
CTACGCGA	-0.149
AACTTCAA	-0.0353
ATAAGAGA	-0.00231
GTGAAATA	0.0339
AGTATGGG	-0.222
ATGTCAAG	-0.0867
AAATAGGC	0.168
CTAATAGC	-0.0179

Sequence	PBM E-score
CCCAAATA	-0.247
GAAGACCC	0.0303
TAAATGGA	-0.12
AAGTGCGC	0.243
GTATAAAC	0.0899
GAGGCGCA	0.00856
CATAAGAA	-0.0277
GGAGCCTA	-0.125
GCGAACCA	-0.113
CCACGCAG	-0.184
ATGAAAGG	0.0036
AAAGATGC	-0.214
TAAGAAGA	0.0304
ATACCGAT	0.353
AATTATAA	0.164
TACCTTGA	-0.0542
CGACTCCC	-0.0289
ACCATACT	-0.0978
TCGCGGCA	0.267
CACGACTG	-0.173
CCTACGGC	0.109
ATGCGATC	-0.0694
GATCATAA	-0.0324
AGTCCTAC	-0.101
AAACATAC	-0.0269

Sequence	PBM E-score
CATTAATC	0.0248
AGGACCAT	-0.106
GGAGGTCA	-0.114
CGAGCTAC	-0.127
AGGTTGCG	-0.21
TACGGTCA	0.0702
ACCGTTGC	0.204
ACCCATGA	-0.023
ACCCCCGA	0.371
GCATACCA	-0.0403
TGGATCAA	-0.108
ACGGATGC	0.0495
CCAAATCA	-0.181
CACGGAGC	0.276
GGACGTAA	0.179
GGGAACTA	0.172
GATGAAGA	-0.0236
GGCTCCAA	0.0739
AGAGTGGC	-0.176
ATCGCATC	0.106
GAGCCCGC	0.252
AGTCTGTA	-0.249
ATAGACCC	0.262
CAGTCGAC	-0.248
GCTCGTCA	-0.108

Sequence	PBM E-score
GGCTAACC	-0.128
CTAATGTA	-0.0418
GAAGAAAC	-0.132
ACAGCTAC	-0.1
AAACTAAA	-0.246
GTAGGTAA	-0.113
TAACCACA	-0.129
ATAACGCA	-0.0575
TGTAAACA	-0.126
CATCGCTA	-0.254
CCGGAAAG	-0.081
CGGGAAAG	0.141
ACGGTCAT	0.368
CTCTGACC	-0.188
CTTCTGTC	-0.115
CGCATTTC	-0.0467
ACATGTAC	-0.0042
AATACTAC	-0.0787
ACGCTATC	-0.0449
AGTAGACG	-0.167
GAAGTGTA	-0.112
CCTCCGTC	0.195
GCGTGCCA	-0.0988
ATACTATC	-0.0521
GATTCCAA	-0.223

Sequence	PBM E-score
CCCAGGAC	-0.0546
CGTGTAAG	-0.102
TATGACCA	0.096
CTGCGCCA	-0.138
AACTTCGC	-0.133
TGTCCGAA	0.228
AGGTTGAG	-0.261
ATAATGAC	0.159
CTGTTTTC	-0.264
AACCTCTA	0.00722
ACAGGAGC	-0.259
CCAGCAGG	-0.146
GTGCGGTA	0.367
AGCTCAAT	-0.0861
AGTAGAGC	-0.115
CTTACTCA	-0.0676
AACTGGAG	-0.107
ATAGAAAC	-0.0221
CCGGTACC	0.33
AACGTATC	-0.238
AGGTCTGC	-0.153
GTAACGGA	0.255
AAGAGCTT	-0.192
GTAAGGAC	0.00921
ACAGGACG	0.0271

Sequence	PBM E-score
GTTTAAAC	0.34
CGTGAGTC	0.0257
CAACACGC	-0.278
GCTACGGA	0.14
CGCCCATC	-0.05
AGACTTCG	-0.176
ACCCCCAA	-0.209
ACGCCTAA	0.0208
AAACCTCC	0.112
AGTTCTGC	-0.00914
CGCGTACG	0.0917
ACTAATAA	-0.087
ATGGGCTC	-0.198
ACTCCGAT	0.344
CGATCTAG	-0.157
AGACCTTG	-0.226
CAGGCTGG	0.0281
CTAATCCC	0.354
AAGCACAC	-0.272
CTATCGGA	0.402
ATCCCGGC	0.28
AAAGCGCG	0.121
AAGTCTGC	-0.211
ATTTCCGA	0.235
TGTTTCAA	-0.048

Sequence	PBM E-score
CTAGACCC	0.11
GCAATATA	0.0864
AACAAAGA	-0.05
AAACAGCA	-0.133
CTGTGCGA	-0.121
CTGGAGTA	-0.211
GGTCATAC	0.281
GCCCCTCA	-0.0728
AACGTGAA	-0.183
ATCAGCGA	0.0945
CTTATGGA	-0.0968
ATGATGGA	-0.319
ATCGATCG	-0.106
AATAGCTC	-0.0735
CGACACGC	0.074
CAAGCTTC	-0.27
ACGGAACA	0.107
ACCGGCTG	0.153
CTTACTGC	0.101
